Only a part is listed here, and it is no random draw. The list includes weakly bound sequences.
Target: T1, GST-Ap-NF-kB RHD (UniProt A0A913YAJ5)
T1 sequence: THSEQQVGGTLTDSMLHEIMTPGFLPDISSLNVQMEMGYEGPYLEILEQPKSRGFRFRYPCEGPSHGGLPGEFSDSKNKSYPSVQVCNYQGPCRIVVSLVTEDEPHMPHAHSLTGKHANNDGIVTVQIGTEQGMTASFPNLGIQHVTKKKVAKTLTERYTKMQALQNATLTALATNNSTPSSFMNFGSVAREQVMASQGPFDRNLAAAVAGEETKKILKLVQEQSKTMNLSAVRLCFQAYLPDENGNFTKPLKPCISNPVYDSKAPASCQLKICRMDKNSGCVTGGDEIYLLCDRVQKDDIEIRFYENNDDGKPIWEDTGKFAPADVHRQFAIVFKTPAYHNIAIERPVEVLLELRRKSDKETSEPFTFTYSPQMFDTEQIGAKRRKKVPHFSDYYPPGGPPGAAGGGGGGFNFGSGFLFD
Experiment: protein-binding microarray (PBM)
Conditions: PBM: ~300 nM protein, 6 mM HEPES pH 7.8, 80 mM KCl, 0.5 mM EDTA, 0.5 mM EGTA, 6% glycerol, 35 ng/ul poly-dIdC, 1% milk, 1 h, room temperature; high values mean tight binding; double strand, one strand shown

Sequence	binding signal
CCGATTAACATCAAGGAAAGTACTGATGTTAATCGGGTCTTGATTCGCTTGACGCTGCTG	0.458 z-score
CCGATTAACATCACAGGAATTCCTGATGTTAATCGGGTCTTGATTCGCTTGACGCTGCTG	0.686 z-score
CCGATTAACATCAGGAAAATTCCTGATGTTAATCGGGTCTTGATTCGCTTGACGCTGCTG	-0.786 z-score
CCGATTAACATCAAAAAAACTCCTGATGTTAATCGGGTCTTGATTCGCTTGACGCTGCTG	0.279 z-score
CCGATTAACATCAAAAAATTCCTTGATGTTAATCGGGTCTTGATTCGCTTGACGCTGCTG	-0.0519 z-score
CCGATTAACATCAAATCATTCCCTGATGTTAATCGGGTCTTGATTCGCTTGACGCTGCTG	1.6 z-score
CCGATTAACATCAAAATTTCCGCTGATGTTAATCGGGTCTTGATTCGCTTGACGCTGCTG	0.557 z-score
CCGATTAACATCACAGGGAATTCTGATGTTAATCGGGTCTTGATTCGCTTGACGCTGCTG	4.57 z-score
CCGATTAACATCAATGGGTTTCCTGATGTTAATCGGGTCTTGATTCGCTTGACGCTGCTG	0.711 z-score
CCGATTAACATCACAGGATTTCCTGATGTTAATCGGGTCTTGATTCGCTTGACGCTGCTG	0.719 z-score
CCGATTAACATCAAAAAGTTTCCTGATGTTAATCGGGTCTTGATTCGCTTGACGCTGCTG	-0.142 z-score
CCGATTAACATCAGGACTGCCCCTGATGTTAATCGGGTCTTGATTCGCTTGACGCTGCTG	3.49 z-score
CCGATTAACATCAAAAGAACCCCTGATGTTAATCGGGTCTTGATTCGCTTGACGCTGCTG	4.18 z-score
CCGATTAACATCAAAAAGTCCCTTGATGTTAATCGGGTCTTGATTCGCTTGACGCTGCTG	7.48 z-score
CCGATTAACATCAAGGAAGTTCCTGATGTTAATCGGGTCTTGATTCGCTTGACGCTGCTG	-0.154 z-score
CCGATTAACATCACCCCCGCCCCTGATGTTAATCGGGTCTTGATTCGCTTGACGCTGCTG	4.47 z-score
CCGATTAACATCAAAATTTTCCATGATGTTAATCGGGTCTTGATTCGCTTGACGCTGCTG	-0.352 z-score
CCGATTAACATCAAGGGGAGTCCTGATGTTAATCGGGTCTTGATTCGCTTGACGCTGCTG	6.71 z-score
CCGATTAACATCAGGGGGTCCACTGATGTTAATCGGGTCTTGATTCGCTTGACGCTGCTG	4.33 z-score
CCGATTAACATCAAAAGCCCCCCTGATGTTAATCGGGTCTTGATTCGCTTGACGCTGCTG	5.96 z-score
CCGATTAACATCAGGAATTCCAATGATGTTAATCGGGTCTTGATTCGCTTGACGCTGCTG	-0.113 z-score
CCGATTAACATCACGGAATTCCGTGATGTTAATCGGGTCTTGATTCGCTTGACGCTGCTG	-0.432 z-score
CCGATTAACATCACAACTCCCCCTGATGTTAATCGGGTCTTGATTCGCTTGACGCTGCTG	5.84 z-score
CCGATTAACATCAAAAATCCCCATGATGTTAATCGGGTCTTGATTCGCTTGACGCTGCTG	9.63 z-score
CCGATTAACATCAAATTCCCGTATGATGTTAATCGGGTCTTGATTCGCTTGACGCTGCTG	2.44 z-score

Target: T2, GST-Nv-NF-kB (Cys allele) (UniProt E5G601)
T2 sequence: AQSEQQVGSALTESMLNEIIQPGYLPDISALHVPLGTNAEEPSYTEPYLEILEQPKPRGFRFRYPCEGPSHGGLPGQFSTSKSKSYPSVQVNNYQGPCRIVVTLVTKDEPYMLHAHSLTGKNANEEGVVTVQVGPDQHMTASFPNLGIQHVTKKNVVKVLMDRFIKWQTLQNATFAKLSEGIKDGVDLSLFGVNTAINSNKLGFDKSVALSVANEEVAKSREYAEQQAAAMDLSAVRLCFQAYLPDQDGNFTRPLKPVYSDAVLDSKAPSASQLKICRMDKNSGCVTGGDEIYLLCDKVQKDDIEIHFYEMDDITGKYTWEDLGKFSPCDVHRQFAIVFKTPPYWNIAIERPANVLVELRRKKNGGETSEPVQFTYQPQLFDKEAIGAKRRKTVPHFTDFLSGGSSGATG
Experiment: protein-binding microarray (PBM)
Conditions: PBM: ~300 nM protein, 6 mM HEPES pH 7.8, 80 mM KCl, 0.5 mM EDTA, 0.5 mM EGTA, 6% glycerol, 35 ng/ul poly-dIdC, 1% milk, 1 h, room temperature; Ap Aiptasia and Nv Nematostella (sea anemones) / Co Capsaspora / Aq Amphimedon (sponge) / Dm Drosophila / Hu human; RHD is the Rel homology domain; high values mean tight binding; most listed sequences are background and not binding sites; double strand, one strand shown

Sequence	binding signal
CCGATTAACATCAAGGGGGGTAATGATGTTAATCGGGTCTTGATTCGCTTGACGCTGCTG	4.87 z-score
CCGATTAACATCAGAAACCCCCATGATGTTAATCGGGTCTTGATTCGCTTGACGCTGCTG	6.32 z-score
CCGATTAACATCAGAAATTTCCATGATGTTAATCGGGTCTTGATTCGCTTGACGCTGCTG	-0.112 z-score
CCGATTAACATCAGGGAGGGAAATGATGTTAATCGGGTCTTGATTCGCTTGACGCTGCTG	4.76 z-score
CCGATTAACATCAGGAGACTCCCTGATGTTAATCGGGTCTTGATTCGCTTGACGCTGCTG	2.35 z-score
CCGATTAACATCAGGGGAAAACATGATGTTAATCGGGTCTTGATTCGCTTGACGCTGCTG	7.81 z-score
CCGATTAACATCACATACTCCCCTGATGTTAATCGGGTCTTGATTCGCTTGACGCTGCTG	3.45 z-score
CCGATTAACATCACGGAATTTCCTGATGTTAATCGGGTCTTGATTCGCTTGACGCTGCTG	0.0768 z-score
CCGATTAACATCAGGAATTTTACTGATGTTAATCGGGTCTTGATTCGCTTGACGCTGCTG	0.18 z-score
CCGATTAACATCAGGAAACTTCCTGATGTTAATCGGGTCTTGATTCGCTTGACGCTGCTG	0.236 z-score
CCGATTAACATCAAGAAAATTCCTGATGTTAATCGGGTCTTGATTCGCTTGACGCTGCTG	0.456 z-score
CCGATTAACATCAGGAAAGGCCCTGATGTTAATCGGGTCTTGATTCGCTTGACGCTGCTG	2.62 z-score
CCGATTAACATCAAAAATTCCACTGATGTTAATCGGGTCTTGATTCGCTTGACGCTGCTG	0.543 z-score
CCGATTAACATCAAAATCTTCCCTGATGTTAATCGGGTCTTGATTCGCTTGACGCTGCTG	5.94 z-score
CCGATTAACATCAAGGAAAGTACTGATGTTAATCGGGTCTTGATTCGCTTGACGCTGCTG	0.397 z-score
CCGATTAACATCACAGGAATTCCTGATGTTAATCGGGTCTTGATTCGCTTGACGCTGCTG	0.532 z-score
CCGATTAACATCAGGAAAATTCCTGATGTTAATCGGGTCTTGATTCGCTTGACGCTGCTG	0.89 z-score
CCGATTAACATCAAAAAAACTCCTGATGTTAATCGGGTCTTGATTCGCTTGACGCTGCTG	-0.23 z-score
CCGATTAACATCAAAAAATTCCTTGATGTTAATCGGGTCTTGATTCGCTTGACGCTGCTG	0.932 z-score
CCGATTAACATCAAATCATTCCCTGATGTTAATCGGGTCTTGATTCGCTTGACGCTGCTG	3.39 z-score

Sequence	binding signal
CCGATTAACATCAAAATTTCCGCTGATGTTAATCGGGTCTTGATTCGCTTGACGCTGCTG	0.281 z-score
CCGATTAACATCACAGGGAATTCTGATGTTAATCGGGTCTTGATTCGCTTGACGCTGCTG	5.56 z-score
CCGATTAACATCAATGGGTTTCCTGATGTTAATCGGGTCTTGATTCGCTTGACGCTGCTG	0.257 z-score
CCGATTAACATCACAGGATTTCCTGATGTTAATCGGGTCTTGATTCGCTTGACGCTGCTG	-0.213 z-score
CCGATTAACATCAAAAAGTTTCCTGATGTTAATCGGGTCTTGATTCGCTTGACGCTGCTG	0.717 z-score
CCGATTAACATCAGGACTGCCCCTGATGTTAATCGGGTCTTGATTCGCTTGACGCTGCTG	4.13 z-score
CCGATTAACATCAAAAGAACCCCTGATGTTAATCGGGTCTTGATTCGCTTGACGCTGCTG	3.46 z-score
CCGATTAACATCAAAAAGTCCCTTGATGTTAATCGGGTCTTGATTCGCTTGACGCTGCTG	10.3 z-score
CCGATTAACATCAAGGAAGTTCCTGATGTTAATCGGGTCTTGATTCGCTTGACGCTGCTG	0.0517 z-score
CCGATTAACATCACCCCCGCCCCTGATGTTAATCGGGTCTTGATTCGCTTGACGCTGCTG	3.37 z-score
CCGATTAACATCAAAATTTTCCATGATGTTAATCGGGTCTTGATTCGCTTGACGCTGCTG	-0.442 z-score
CCGATTAACATCAAGGGGAGTCCTGATGTTAATCGGGTCTTGATTCGCTTGACGCTGCTG	4.83 z-score
CCGATTAACATCAGGGGGTCCACTGATGTTAATCGGGTCTTGATTCGCTTGACGCTGCTG	2.44 z-score
CCGATTAACATCAAAAGCCCCCCTGATGTTAATCGGGTCTTGATTCGCTTGACGCTGCTG	6 z-score
CCGATTAACATCAGGAATTCCAATGATGTTAATCGGGTCTTGATTCGCTTGACGCTGCTG	-0.0511 z-score
CCGATTAACATCACGGAATTCCGTGATGTTAATCGGGTCTTGATTCGCTTGACGCTGCTG	-0.206 z-score
CCGATTAACATCACAACTCCCCCTGATGTTAATCGGGTCTTGATTCGCTTGACGCTGCTG	4.69 z-score
CCGATTAACATCAAAAATCCCCATGATGTTAATCGGGTCTTGATTCGCTTGACGCTGCTG	10.8 z-score
CCGATTAACATCAAATTCCCGTATGATGTTAATCGGGTCTTGATTCGCTTGACGCTGCTG	4.38 z-score

Reference: publication PMC5700166
